In PubChem BioAssay AID485294 (National Center for Advancing Translational Sciences (NCATS), 2010):
The whole screen tested about 370,000 compounds, of which about 150 (0.041%) were called active. This list was built around the results that the source calls inconclusive (neither active nor inactive); the mix of calls is not that of the screen. The call rests on the fitted dose curve; in most records, active means well fitted inhibition curve with a large enough effect; inconclusive means small, poorly fitted or top-dose-only effect; inactive means flat fitted curve, though single readings scatter. No potency is given beside an inconclusive call; the fits are too rough.
Further: nearly all actives have a fitted effect of over 25% in size.
Potency means the concentration at half of the fitted maximal effect; tags describe the fitted curve by direction and shape.

Each compound was assayed against Beta-lactamase (Escherichia coli (strain K12)) (UniProt P00811) (assay: qHTS Inhibitors of AmpC Beta-Lactamase (assay with detergent)). Conditions: AmpC hydrolysis of nitrocefin, absorbance 480 nm, 0.01% Triton; series mostly up to 114 µM.
Chain of UniProt P00811 (P00811 whole entry, looked up): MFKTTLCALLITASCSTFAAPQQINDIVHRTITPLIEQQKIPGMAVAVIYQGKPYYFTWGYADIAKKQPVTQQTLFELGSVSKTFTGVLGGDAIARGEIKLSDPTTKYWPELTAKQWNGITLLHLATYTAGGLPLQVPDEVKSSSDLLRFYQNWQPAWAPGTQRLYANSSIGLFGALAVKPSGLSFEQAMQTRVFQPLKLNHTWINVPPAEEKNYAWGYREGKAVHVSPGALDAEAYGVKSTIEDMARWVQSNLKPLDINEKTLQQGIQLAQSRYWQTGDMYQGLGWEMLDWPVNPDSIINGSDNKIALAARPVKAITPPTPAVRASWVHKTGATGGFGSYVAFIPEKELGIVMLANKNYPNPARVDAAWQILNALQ
In short: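 20 mM phosphate pH 7.0 + 0.01% (detergent screen) or 0.0001% Triton X-100; 5.3 nM AmpC reagent; cpd preinc 15 min RT; nitrocefin (800 uM stock) to start; A480 q20 s × 4 min; Activity was normalised to no-enzyme and no-compound control wells.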
In the case of `CCOc1ccc(/C=N/NC(=O)CN2CCSCC2)cc1`, the Potency is reported as inconclusive [inhibitor, full curve, poor fit].
In the case of `CC1(C)Oc2ccc(C(=O)Nc3ccccc3)cc2N(CC#N)C1=O`, the Potency is reported as “inactive”.
`Cc1cccc(NC(=O)C2(c3ccc([N+](=O)[O-])cc3)CCCC2)c1` was tested, and the Potency was inconclusive [inhibitor, full curve, poor fit].
For `COc1ccccc1S(=O)(=O)Nc1cccc(-c2nnc3n2CCCCC3)c1`, the Potency was inconclusive [inhibitor, single point].
`CC(C)c1ccc(N=C2NN=C(c3cccs3)CS2)cc1` was tested, and the Potency was inconclusive [inhibitor, full curve, poor fit].
With `CCOC(=O)C1C(=O)C=C(c2ccc(C)cc2)CC1c1cccc([N+](=O)[O-])c1` (stereo not given) the Potency was “inactive”.
`COc1ccc2c(c1)c(N=O)c(O)n2C` was tested, and the Potency was inconclusive [inhibitor, full curve, poor fit].
`C/C(N)=C(/C#N)C(=O)CSc1nncn1-c1ccccc1` was tested, and the Potency was inconclusive [inhibitor, full curve, poor fit].
For `O=C(CN1C(=O)CSc2ncccc21)NCCN1CCOCC1`, the Potency was inconclusive [inhibitor, full curve, poor fit].
For `CCSC1=N/C(=C\c2ccc(C(=O)O)cc2)C(=O)S1`, the Potency was inconclusive [inhibitor, full curve, poor fit].
With `Cc1cccc(Oc2ccc(NS(=O)(=O)c3ccc(C)c(C(=O)O)c3)cc2)c1` the Potency was inconclusive [inhibitor, full curve, poor fit].
`COc1ccc(Cl)cc1C(=O)NCC(c1ccco1)N1CCCC1` (stereo not given) was tested, and the Potency was “inactive”.
`C=CCSc1ncccc1C(=O)NCc1ccccc1` was tested, and the Potency was “inactive”.
For `Cc1c(Nc2nc3ccccc3nc2N2CCN(c3ccccc3)CC2)c(=O)n(-c2ccccc2)n1C`, the Potency was inconclusive [inhibitor, partial curve, poor fit].
With `CC(=O)Nc1c(OC(C)=O)ccc2c(C)cc(=O)oc12` the Potency was inconclusive [inhibitor, single point].
With `COc1cccc(C2CC(c3cccs3)=NN2C(=O)c2ccco2)c1O` (stereo not given) the Potency was “inactive”.
With `O=S1(=O)C=C(Sc2nc3cc(Cl)ccc3o2)c2ccccc21` the Potency was “inactive”.
For `O=C(Nc1ccc(Oc2ccccc2)nc1)C1CCN(Cc2cccc(F)c2)CC1`, the Potency was inconclusive [inhibitor, full curve, poor fit].
`CN(C(=O)C1CCCN1S(=O)(=O)c1ccc(Cl)cc1)c1ccccc1` (stereo not given) was tested, and the Potency was inconclusive [inhibitor, full curve, poor fit].
For `Cn1cnnc1SCC(=O)Nc1ccc(N2CCOCC2)cc1`, the Potency was inconclusive [inhibitor, full curve, poor fit].
With `CCN(Cc1ccccc1)C(=O)c1cccc(OC2CCN(C(=O)C3CC3)CC2)c1` the Potency was inconclusive [inhibitor, full curve, poor fit].
`O=C(Cc1cccc2ccccc12)Nc1ccccc1Br` was tested, and the Potency was “inactive”.
With `COc1ccc(CN(C(=O)c2ccc(OCC(C)C)cc2)C2CCS(=O)(=O)C2)cc1` (stereo not given) the Potency was inconclusive [inhibitor, single point].
For `CCCc1nnc(NS(=O)(=O)c2ccccc2)s1`, the Potency was inconclusive [inhibitor, full curve, poor fit].
In the case of `CCOC(=O)Cn1nc(-c2ccc(Cl)cc2)cc1N`, the Potency is reported as “inactive”.
With `Brc1ccc(-c2csc(-c3nc(-c4ccc(Br)s4)cs3)n2)cc1` the Potency was “inactive”.
In the case of `CCOC(=O)N1CCc2c(sc(NCc3ccc(N(C)C)cc3)c2C(=O)Nc2ccccc2OCC)C1`, the Potency is reported as “inactive”.
In the case of `COc1ccc(NC(=O)N2CCCc3cc(C)ccc32)c(OC)c1`, the Potency is reported as inconclusive [inhibitor, full curve, poor fit].
In the case of `O=C(c1ccccc1)n1nc(-c2ccccc2)nc1NCc1ccco1`, the Potency is reported as inconclusive [inhibitor, full curve, poor fit].
`COc1ccccc1N1CCN(S(=O)(=O)c2c(C)ccc3nsnc23)CC1` was tested, and the Potency was inconclusive [inhibitor, single point].
For `Cc1ccsc1CNn1cnnc1SCc1ccc(Cl)cc1`, the Potency was inconclusive [inhibitor, full curve, poor fit].
`CCOc1ccc2[nH]c(=O)c(C(c3nnnn3CCOC)N3CCOCC3)cc2c1` (stereo not given) was tested, and the Potency was inconclusive [inhibitor, full curve, poor fit].
`COc1ccc(C(=O)NNC2=NS(=O)(=O)c3ccccc32)cc1OC` was tested, and the Potency was “inactive”.
With `CCOC(=O)c1c(NC(=O)c2cc(=O)c3c(C)cc(C)cc3o2)sc(C)c1C` the Potency was “inactive”.
In the case of `COc1ccc(OC)c(S(=O)(=O)NCC(=O)NC2CCCCCC2)c1`, the Potency is reported as inconclusive [inhibitor, full curve, poor fit].
`COc1ccc(C(=O)NC(=S)N2CCNC(=O)C2)cc1Br` was tested, and the Potency was “inactive”.
With `Cc1cc(NC(=O)CSc2nc3[nH]c(=O)cc(O)c3s2)ccc1Br` the Potency was inconclusive [inhibitor, full curve, poor fit].
With `Cc1ccc(OCC(O)CN2C(=O)NC(C)(C)C2=O)cc1` (stereo not given) the Potency was “inactive”.
With `O=c1oc2c(CN3CCCCC3)c(O)ccc2c2c1CCCCC2` the Potency was inconclusive [inhibitor, full curve, poor fit].
With `O=C(CN1C(=O)C2CC=CCC2C1=O)Nc1nc2ccccc2s1` (stereo not given) the Potency was “inactive”.
With `O=C(c1ccco1)N1CCN(C(=O)C2CCCc3c2[nH]c2ccc(Cl)cc32)CC1` (stereo not given) the Potency was inconclusive [inhibitor, full curve, poor fit].
In the case of `CCC(=O)c1ccc(OC(=O)N2CCOCC2)cc1`, the Potency is reported as inconclusive [inhibitor, full curve, poor fit].
With `CCOC(=O)c1c(-c2ccccc2)oc2ccc(OC(=O)N(C)C)cc12` the Potency was inconclusive [inhibitor, full curve].
For `c1ccc(CNc2ccc(CNc3ncn[nH]3)cc2)cc1`, the Potency was inconclusive [inhibitor, full curve, poor fit].
With `CCCCCNCc1ccc(Cl)cc1` the Potency was “inactive”.
`Cc1ccc(NC(=S)NNC(=S)NC2CCCCC2)cc1` was tested, and the Potency was inconclusive [inhibitor, single point].
For `COc1ccc(C(=O)C2CCCN(C(=O)c3ccc(CSC)o3)C2)cc1F` (stereo not given), the Potency was “inactive”.
`CCOc1ccc(NC(=O)COc2ccccc2)c([N+](=O)[O-])c1` was tested, and the Potency was “inactive”.
In the case of `Cc1oc(-c2ccc(Cl)cc2)nc1CN1CCCC(C(=O)NCc2cccnc2)C1` (stereo not given), the Potency is reported as “inactive”.
In the case of `CCCc1cc(=O)[nH]c(SCC(=O)C(C)(C)C)n1`, the Potency is reported as inconclusive [inhibitor, full curve, poor fit].
`COc1ccc(/C=N/NC(=S)Nc2ccccc2)cc1COc1ccc(Br)cc1` was tested, and the Potency was inconclusive [inhibitor, full curve, poor fit].
With `CC(NC(=O)CN1C(=O)NC(C)(c2cccc3ccccc23)C1=O)c1ccccc1` (stereo not given) the Potency was inconclusive [inhibitor, single point].
`COc1ccc2cc(C(=O)C3CCCN(C(=O)c4cc5nc(C)cc(C)n5n4)C3)ccc2c1` (stereo not given) was tested, and the Potency was “inactive”.
For `Cc1ccccc1N1C(=O)NC(=O)/C(=C\c2ccc3c(c2)CCCN3Cc2ccccc2)C1=O`, the Potency was “inactive”.
In the case of `COc1ccc(-c2nnc(SCC(=O)c3cccs3)n2-c2ccc(Cl)cc2)cc1`, the Potency is reported as inconclusive [inhibitor, single point].
For `Cc1cc(C)nc(NC(=NCCc2c[nH]c3ccccc23)NC(=O)Nc2ccc(Cl)c(Cl)c2)n1`, the Potency was inconclusive [inhibitor, full curve, poor fit].
With `CC(=O)/C(=N/Nc1ccccc1)Sc1nnc(C(O)c2ccccc2)n1-c1ccccc1` (stereo not given) the Potency was inconclusive [inhibitor, partial curve, poor fit].
For `CCOC(=O)c1cc(-c2ccco2)nc2c1c(C)nn2CCC#N`, the Potency was inconclusive [inhibitor, full curve].
For `CC(=O)c1cccc(NC(=O)c2ccc3ccccc3c2)c1`, the Potency was inconclusive [inhibitor, partial curve, poor fit].
`CC1O[C@@H](O[C@H](C)CC/C=C/C(=O)O)C(O)C[C@H]1O` (stereo not given in full) was tested, and the Potency was inconclusive [inhibitor, full curve, poor fit].
`CN1CCN(C(=S)C(=O)Nc2ccc(Br)cc2)CC1` was tested, and the Potency was “inactive”.
`CCCC(=O)Nc1nnc(SCC(=O)Nc2ccc3c(c2)OCCO3)s1` was tested, and the Potency was inconclusive [inhibitor, full curve].
In the case of `COc1ccc(CCNC(=O)c2[nH]c(C)c(C(C)=O)c2C)cc1`, the Potency is reported as inconclusive [inhibitor, single point].
In the case of `N#CC1(NC(=O)COC(=O)c2cc(=O)[nH]c3ccccc23)CCCCC1`, the Potency is reported as inconclusive [inhibitor, full curve, poor fit].
For `c1ccn2c(SCc3ccc4c(c3)OCO4)nnc2c1`, the Potency was inconclusive [inhibitor, partial curve, poor fit].
For `COc1ccc(-n2nc3c(N4CCCC(C(=O)NCc5ccccc5C)C4)nnc(C)c3c2C)cc1` (stereo not given), the Potency was “inactive”.
In the case of `O=C(NCC1CCOCC1)C1CCC(=O)N(Cc2cccc(C(F)(F)F)c2)C1` (stereo not given), the Potency is reported as inconclusive [inhibitor, full curve, poor fit].
With `COC(=O)C1CCN(c2cnccn2)CC1` the Potency was “inactive”.
In the case of `O=C(Nc1ccc2c(c1)CCC2)c1ccc(Br)o1`, the Potency is reported as inconclusive [inhibitor, single point].
For `Cc1cc(C)nc(NC(=NCCc2c[nH]c3ccccc23)NC(=O)C(C)(C)C)n1`, the Potency was “inactive”.
